Laboratory results from PMC4336329 (PLoS ONE, 2015).
About 2,200 (0.71%) of roughly 310,000 compounds showed an effect of 50% or more. The effect is printed as a negative number. The list shows a part of the results.

Each compound was assayed against human ether-à-go-go-related gene (hERG) potassium channel (human, UniProt Q12809) (assay: primary screen, population patch clamp on CHO cells stably expressing hERG).
human ether-à-go-go-related gene (hERG) potassium channel, sequence (Q12809 whole entry, looked up): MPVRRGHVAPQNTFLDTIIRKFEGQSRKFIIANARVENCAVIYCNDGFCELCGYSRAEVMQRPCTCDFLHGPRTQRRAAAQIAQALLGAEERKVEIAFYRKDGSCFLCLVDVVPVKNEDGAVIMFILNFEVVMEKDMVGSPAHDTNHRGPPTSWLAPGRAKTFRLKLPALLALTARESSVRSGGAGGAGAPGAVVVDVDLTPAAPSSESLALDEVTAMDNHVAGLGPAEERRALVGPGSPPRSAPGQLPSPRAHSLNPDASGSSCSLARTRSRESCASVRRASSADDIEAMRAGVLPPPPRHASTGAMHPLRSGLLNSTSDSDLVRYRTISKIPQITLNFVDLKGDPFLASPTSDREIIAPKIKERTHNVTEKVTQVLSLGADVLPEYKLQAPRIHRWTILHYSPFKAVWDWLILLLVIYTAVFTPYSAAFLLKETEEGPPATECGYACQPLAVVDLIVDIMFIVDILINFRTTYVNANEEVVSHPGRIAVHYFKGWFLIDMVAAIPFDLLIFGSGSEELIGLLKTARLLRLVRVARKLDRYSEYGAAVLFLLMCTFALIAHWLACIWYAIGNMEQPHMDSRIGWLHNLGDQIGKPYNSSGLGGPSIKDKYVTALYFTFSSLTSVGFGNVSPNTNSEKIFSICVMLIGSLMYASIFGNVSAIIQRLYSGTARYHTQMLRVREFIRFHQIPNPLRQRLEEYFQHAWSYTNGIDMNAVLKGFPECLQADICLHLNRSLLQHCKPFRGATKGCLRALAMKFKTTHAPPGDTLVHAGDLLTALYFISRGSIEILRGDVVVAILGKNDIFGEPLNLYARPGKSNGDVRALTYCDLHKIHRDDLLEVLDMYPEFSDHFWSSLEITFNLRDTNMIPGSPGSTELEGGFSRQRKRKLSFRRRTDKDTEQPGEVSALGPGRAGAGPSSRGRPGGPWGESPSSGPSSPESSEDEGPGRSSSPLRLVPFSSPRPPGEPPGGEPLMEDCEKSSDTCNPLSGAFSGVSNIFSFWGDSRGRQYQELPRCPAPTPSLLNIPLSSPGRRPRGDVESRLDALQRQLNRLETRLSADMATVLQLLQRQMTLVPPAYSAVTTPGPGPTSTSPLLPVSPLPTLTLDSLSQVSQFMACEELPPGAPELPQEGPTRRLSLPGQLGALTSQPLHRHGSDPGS

SMILES | hERG current change (%, negative = inhibition) at 1uM
Nc1cnccc1C(=O)O | 18.9%
CC(C)Cc1nnc(NS(=O)(=O)c2ccc(Cl)cc2)s1 | 12.6%
CN(C(=O)c1cccnc1)c1nnc(-c2cccnc2)s1 | 9.58%
CC(/C=N/n1cnnc1)=C\c1ccco1 | -16.3%
CCCn1nnnc1NCc1ccccc1C | 16.9%
CCOC(=O)C(C)n1ncn2cccc2c1=O (stereo not drawn) | 10.7%
NC(=O)C1(N2CCCCC2)CCN(Cc2nc3ccccc3c(=O)[nH]2)CC1 | 9.71%
O=C(NCc1ccc2c(c1)OCO2)c1ccc(Cl)nc1 | -3.46%
CC(C)Cn1c(N)c(C(=O)COC(=O)c2ccc([N+](=O)[O-])o2)c(=O)n(C)c1=O | -31%
CCOC(=O)CN1C(=O)C(O)=C(C(C)=O)C1c1ccccc1 (stereo not drawn) | 4.4%
Cc1ccc(NCc2cccnc2)cc1 | 10.7%
Cc1ccn2c(C(=O)NN=C3CCCCCCC3)c(C)nc2c1 | 11.3%
Cc1nc(CCNC(=O)C2CCC(=O)N(Cc3cccc(F)c3)C2)sc1C (stereo not drawn) | 2.82%
Cc1ccsc1/C=C1/SC(=O)N(CC(=O)N2CCCC2)C1=O | 5.75%
CC1CCC/C(=N\NC(=O)COc2ccc(Cl)cc2Cl)C1 (stereo not drawn) | -7.94%
Cc1ccc(OCC(=O)N/N=C2\CCOc3c(C)cccc32)cc1 | 6.68%
CN(CCC#N)C(=O)COC(=O)c1c2c(nc3ccccc13)/C(=C/c1ccco1)CC2 | 7.61%
O=C(O)C1CCCN1c1ncnc2c1oc1ccccc12 (stereo not drawn) | 7.86%
CC(C)C(NC(=O)c1ccccc1F)C(=O)Nc1ccc2c(c1)OCO2 (stereo not drawn) | 6.37%
CC(C)Oc1ccc(CCNC(=O)CC2C(=O)NCCN2C)cc1 (stereo not drawn) | 7.15%
O=C(NNC(=O)c1nn(-c2ccc(F)cc2)ccc1=O)c1ccccc1Cl | 9.2%
Cc1cnc(NC(=O)CSC(=S)N2CCOCC2)s1 | 20.3%
Cc1cccc(-n2ccc(=O)c(C(=O)Nc3ccc(S(=O)(=O)Nc4onc(C)c4C)cc3)n2)c1 | 11.6%

SMILES | hERG current change (%, negative = inhibition) at 1uM
CNc1sc(C(=O)c2cccs2)c(N)c1-c1nc2ccccc2s1 | 14.7%
COc1ccc(N2C(=O)c3ccc(NC(C)=O)cc3C2=O)cc1 | 16.6%
COC(=O)c1sccc1NC(=S)Nc1ccc(F)cc1F | 7.43%
COc1ccc(C(=O)C2CCCN(C(=O)Cn3nc(C)cc3C)C2)cc1F (stereo not drawn) | 1.2%
O=C(Nn1c(-c2ccc(Cl)cc2)nc2ccccc2c1=O)c1cccnc1Cl | 1.03%
COc1ccccc1Nc1ccc(N)cc1 | 6.04%
CCC(=O)NCCc1nc2cc(NC(=O)c3ccccc3Cl)ccc2n1C | 8.46%
Cc1ccc[n+](CC(=O)c2ccc(NC(=O)c3ccccc3)cc2)c1.[Br-] | 16.4%
COc1cc(Nc2nc(SCC#N)nc3ccccc23)cc(OC)c1OC | -10%
COCCC(=O)N1CCC(Oc2ccc(C(=O)NC3CCOC(C)(C)C3)cc2)CC1 (stereo not drawn) | 20%
CCOC(=O)c1sc(NC(=O)CC)c(C#N)c1C | 14.8%
COc1ccc(CN(CCCN2CCOCC2)C(=O)Nc2cccc(Cl)c2)cc1OC | -3.99%
CC(C)NCC(O)c1ccc(C2CCCC2)cc1.O=C(O)/C=C\C(=O)O (stereo not drawn) | 7.02%
c1ccc(CSc2ncccn2)cc1 | 13.5%
O=C(O)CCSc1ncnc2sc(-c3ccccc3)cc12 | 7.1%
CCn1c(N2CCN(C(=O)NC3CCCCC3)CC2)nc2ccccc21 | -9.49%
CCOC(=O)C1=C(C)N=C2SC(C(=O)OC)=CC(=O)N2C1c1ccc(F)cc1 (stereo not drawn) | 12.9%
O=C(N1CCOCC1)N1CCC(n2nnc3ccccc32)CC1 | 5.69%
Cc1nc2cc(-c3cccs3)nn2c(NCC(C)(C)CN(C)C)c1C | 6.04%
O=C(CP(=O)(c1ccccc1)c1ccccc1)Nc1nc2ccc(Cl)cc2s1 | 4.82%
O=C(CN1CCC(C(=O)c2ccc(Cl)cc2)CC1)Nc1ccc2c(c1)OCCO2 | -1.86%
COc1ccc(S(=O)(=O)N2CCC(C(=O)N3CCc4ccccc4C3)CC2)cc1C | -1%
O=C(NCC1CCCCC1)C12CN(Cc3ccccc3)CC1C(c1cccc([N+](=O)[O-])c1)=NO2 (stereo not drawn) | 6.52%

SMILES | hERG current change (%, negative = inhibition) at 1uM
CCOC(=O)C(C)/C(C)=N/NC(=O)CCC(=O)Nc1cc(C)ccc1C (stereo not drawn) | 12.2%
COc1ccnc(Oc2ccc(F)cc2)c1-c1ncn[nH]1 | 14%
Cc1cccc(OCC(O)CN2CCN(C3CCCCC3)CC2)c1.Cl (stereo not drawn) | -21.7%
CCN(CC)CCN1C(=O)C2C(C(=O)Nc3cccc(C)c3)C3C=CC2(O3)C1C(=O)NC1CCCC(C)C1C (stereo not drawn) | 5.74%
COC(=O)NNC(=O)c1ccc(C(C)(C)C)cc1 | 15.6%
O=C(NNC(=O)c1ccccc1Br)c1ccccc1Cl | 15.3%
Cc1ccc(C)c(N(CC(=O)NCc2ccco2)C(=O)CCC(=O)Nc2nccs2)c1 | 17.2%
NC[C@@H]1O[C@H](O[C@H]2[C@@H](O)[C@H](O[C@@H]3[C@@H](O)[C@H](N)C[C@H](N)[C@H]3O[C@H]3O[C@H](CO)[C@@H](O)[C@H](O)[C@H]3N)O[C@@H]2CO)[C@H](N)[C@@H](O)[C@@H]1O.O=S(=O)(O)O | 23.3%
NC(=O)CN1CCOCCN(CC(N)=O)CCOCC1 | 19.1%
CCOc1ccc(N=Cc2c(O)n(-c3ccc(C)c(C)c3)c(=O)[nH]c2=O)cc1 | -0.972%
CCC(=O)c1ccc(OCC(O)CNC2CCCC2)cc1 (stereo not drawn) | 9.53%
COc1cc(C(=O)N2CCN(C(=O)C3CC3)CC2)cc(OC)c1OC | 4.43%
COc1ccccc1NC(=O)Nc1ccnn1C1CCCCC1 | 3.93%
CCOC(=O)Cc1csc(NC(NC(=O)OCC)(C(=O)OCC)C(F)(F)F)n1 (stereo not drawn) | 5.2%
CC(=O)Nc1ccc(S(=O)(=O)N(C)CC(=O)OCC(=O)N2CCCCC2)cc1 | 2.27%
CC(C#N)CCC#N (stereo not drawn) | 14.9%
CCOc1ccc2c(C)nc(NC3=NC(C)(C)C=C(C)N3)nc2c1 | -11.6%
O=C(CN1C(=O)C2C3C=CC(C3)C2C1=O)NCCN1CCCc2ccccc21 (stereo not drawn) | 0.0655%
Cc1ccc2cc(C(c3nnnn3C(C)(C)C)N3CCCCCC3)c(=O)[nH]c2c1 (stereo not drawn) | 3.68%
Cc1ccc(-c2nnn(CC(=O)Nc3ccccc3N3CCOCC3)n2)cc1 | 9.87%
COc1ccc(C(=O)COc2ccc(C)cc2NC(C)=O)cc1 | 9.85%
CCn1c(CC(=O)Nc2ccccc2)n[nH]c1=S | 7.45%
COC(=O)c1cc(Br)c(=O)n(-c2ccc(OC)cc2)c1 | 5.39%

SMILES | hERG current change (%, negative = inhibition) at 1uM
CCCCCCSc1cc(-c2nc3cnccn3c2NCc2ccccc2)ccc1OC.O=C(O)C(F)(F)F | 8.24%
Cc1cccc(C(=O)Nc2ccc(C(=O)/C=C/c3cccs3)cc2)c1 | 3.67%
CCCCn1c(=O)c(-[n+]2ccccc2)c([O-])c2ccccc21 | 4.66%
O=C(c1ccc(N2CCCCCC2)c([N+](=O)[O-])c1)N1CCC2(CC1)OCCO2 | -3.8%
COc1ccccc1NC(=S)NCC1CCCO1 (stereo not drawn) | 15%
O=c1[nH]c(CS(=O)(=O)c2ccccc2)nc2ccccc12 | 3.96%
C/C(Cc1ccccc1)=N\NC(=O)CNC(=O)Cc1ccccc1 | 15.8%
CCOC(=O)C1(Cc2cccc(OC)c2)CCCN(C(=O)c2cc(CC(C)C)[nH]n2)C1 (stereo not drawn) | -0.175%
CN(C1CCCCC1)S(=O)(=O)c1cc2c3c(c1)CCN3C(=O)CC2 | 1.53%
O=C1c2ccccc2NC(c2ccc(O)cc2)N1c1ccccc1 (stereo not drawn) | -0.795%
CCOC(=O)CC(N)c1cccc([N+](=O)[O-])c1.Cl (stereo not drawn) | 9.88%
COc1ccc(/C=C2/SC(=O)N(CCC(=O)Nc3ccc(C)cc3)C2=O)cc1OC | 3.27%
COC(=O)C1=C(c2cc3ccccc3o2)C[C@@H]2CC[C@H]1N2C(=O)NC1CCCCC1 | -7.33%
CN(C)C(/C=C/Nc1ccc([N+](=O)[O-])cc1)=C(C#N)C#N | -10.8%
O=C(N/N=C/c1c[nH]c2ccc(Br)cc12)C1CC1 | 9.55%
COC(=O)c1ccc(CSc2nnc(NC(=O)C3CC(=O)N(Cc4ccc(C)cc4)C3)s2)cc1 (stereo not drawn) | 9.81%
COc1ccccc1C(=O)NCCC(=O)NCC(C)(C)N1CCOCC1 | -0.451%
CCOC(=O)Cc1csc(NC(=O)CCCCCN2C(=O)c3cccc4cccc(c34)C2=O)n1 | 8.73%
COc1ccc(N(CCOc2ccccc2)S(=O)(=O)c2ccccc2)cc1 | 12%
Cn1c(=NC(=O)C(C)(C)C)sc2cccc(F)c21 | 3.79%
O=C(Nc1cccc(O)c1)c1ccc(C(F)(F)F)cc1 | 15.8%
